# Experimental data taken from the supplement of paper PMC8728848.
# Some of the results follow.
# B1: PX14367B-bvu-516-23-516 (Bacteroides vulgatus) (protein)
# chain: LDTIPTTYVDAGSVFGKTGDAEKVLNGGWNYLMETFNSYANPGYGAMLRANDAMGSDVVLNSKYGFRTHNEFSAIYGKGGTNTLSWLLAYRVINDCNGVLDNIDAAEGTQADRNRIKGQALALRGFLYLHLASCYSFAIDKDPDAVCAPIYTQSTDETIAAEGKPASSVSEVYAQSINDLEEALELIPETYVRDAKHKIDNEVVLGILSRACLYARQWEKAKTYSDKLLAKDNYLMTESEYKAGFNSVDNKEWIWGHAQTNDQSNASYQFHYLDTTTKGSYYYSFNVDPYFRDLFEDGDYRKEMLFWATDPGADVESAAYVWMRNSKFRFRDIENQLGDIVLMRVAEIYLINAEAKAHLNDPDAINKLNDLKTARGAKTIHTNLSQQDLLETIWLERRKELWGEGFSLIDIIRNQQTVVRNAYPEGPIDYIYTDENGQTHTLKKKTQGHRFFNFPDKSAFCPNSKYYLYRITDSEELANKNLYKDHPKLSIYTK
# Legend:
# Assay in all cases: glycan array binding signal (z-score within array); higher = stronger binding
# Settings in all cases: glycan notation: IUPAC condensed, linker removed
# [1] = molecular target: Fuc(a1-2)[Gal(a1-4)]Gal(b1-4)GlcNAc
# Method in brief: (§1)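 The binding signal is a Z-score computed within each array. Data were drawn from 3228 arrays in the Consortium for Functional Glycomics database, restricted to those with a known protein sequence. Scores were averaged over arrays of the same protein sequence at different concentrations or buffers, and over linkers, and negative values can be taken as non-binding.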
# [2] = molecular target: Fuc(a1-2)[GalNAc(a1-3)]Gal
# Method in brief: as §1
# [3] = molecular target: Fuc(a1-2)[GalNAc(a1-3)]Gal(b1-3)GalNAc(a1-3)[Fuc(a1-2)]Gal(b1-4)GlcNAc
# Method in brief: as §1
# [4] = molecular target: Fuc(a1-2)[GalNAc(a1-3)]Gal(b1-3)GalNAc(b1-3)Gal(a1-4)Gal(b1-4)Glc
# Method in brief: as §1
# [5] = molecular target: Fuc(a1-2)[GalNAc(a1-3)]Gal(b1-3)GlcNAc
# Method in brief: as §1
# [6] = molecular target: Fuc(a1-2)[GalNAc(a1-3)]Gal(b1-3)GlcNAc(b1-2)Man(a1-3)[Fuc(a1-2)[GalNAc(a1-3)]Gal(b1-3)GlcNAc(b1-2)Man(a1-6)]Man(b1-4)GlcNAc(b1-4)GlcNAc
# Method in brief: as §1
# [7] = molecular target: Fuc(a1-2)[GalNAc(a1-3)]Gal(b1-3)GlcNAc(b1-2)Man(a1-3)[Fuc(a1-2)[GalNAc(a1-3)]Gal(b1-3)GlcNAc(b1-2)Man(a1-6)]Man(b1-4)GlcNAc(b1-4)[Fuc(a1-6)]GlcNAc
# Method in brief: as §1
# [8] = molecular target: Fuc(a1-2)[GalNAc(a1-3)]Gal(b1-3)GlcNAc(b1-3)GalNAc
# Method in brief: as §1
# [9] = molecular target: Fuc(a1-2)[GalNAc(a1-3)]Gal(b1-3)GlcNAc(b1-6)GalNAc
# Method in brief: as §1
# [10] = molecular target: Fuc(a1-2)[GalNAc(a1-3)]Gal(b1-4)Glc
# Method in brief: as §1
# [11] = molecular target: Fuc(a1-2)[GalNAc(a1-3)]Gal(b1-4)GlcNAc
# Method in brief: as §1
# [12] = molecular target: Fuc(a1-2)[GalNAc(a1-3)]Gal(b1-4)GlcNAc(b1-2)Man
# Method in brief: as §1
# [13] = molecular target: Fuc(a1-2)[GalNAc(a1-3)]Gal(b1-4)GlcNAc(b1-2)Man(a1-3)[Fuc(a1-2)[GalNAc(a1-3)]Gal(b1-4)GlcNAc(b1-2)Man(a1-6)]Man(b1-4)GlcNAc(b1-4)GlcNAc
# Method in brief: as §1
# [14] = molecular target: Fuc(a1-2)[GalNAc(a1-3)]Gal(b1-4)GlcNAc(b1-2)Man(a1-3)[Fuc(a1-2)[GalNAc(a1-3)]Gal(b1-4)GlcNAc(b1-2)Man(a1-6)]Man(b1-4)GlcNAc(b1-4)[Fuc(a1-6)]GlcNAc
# Method in brief: as §1
# [15] = molecular target: Fuc(a1-2)[GalNAc(a1-3)]Gal(b1-4)GlcNAc(b1-3)Gal(b1-4)GlcNAc
# Method in brief: as §1
# [16] = molecular target: Fuc(a1-2)[GalNAc(a1-3)]Gal(b1-4)GlcNAc(b1-3)Gal(b1-4)GlcNAc(b1-3)Gal(b1-4)GlcNAc
# Method in brief: as §1
# [17] = molecular target: Fuc(a1-2)[GalNAc(a1-3)]Gal(b1-4)GlcNAc(b1-3)GalNAc
# Method in brief: as §1
# [18] = molecular target: Fuc(a1-2)[GalNAc(a1-3)]Gal(b1-4)GlcNAc(b1-3)[Fuc(a1-2)[GalNAc(a1-3)]Gal(b1-4)GlcNAc(b1-6)]GalNAc
# Method in brief: as §1
# [19] = molecular target: Fuc(a1-2)[GalNAc(a1-3)]Gal(b1-4)GlcNAc(b1-6)GalNAc
# Method in brief: as §1
# [20] = molecular target: Fuc(a1-2)[GalNAc(a1-3)]Gal(b1-4)[Fuc(a1-3)]GlcNAc
# Method in brief: as §1
# [21] = molecular target: Fuc(a1-2)[GalNAc(a1-3)]Gal(b1-4)[Fuc(a1-3)]GlcNAc(b1-3)GalNAc
# Method in brief: as §1
# [22] = molecular target: Fuc(a1-2)[GalNAc(a1-4)]Gal(b1-4)GlcNAc
# Method in brief: as §1
# [23] = molecular target: Fuc(a1-2)[GalNAc(b1-3)]Gal
# Method in brief: as §1
# Fuc(a1-3)GlcNAc = molecular target: Fuc(a1-3)GlcNAc
# Method in brief: as §1
# [24] = molecular target: Fuc(a1-3)[Gal(b1-4)]Glc6S
# Method in brief: as §1
# [25] = molecular target: Fuc(a1-3)[Gal(b1-4)]GlcNAc
# Method in brief: as §1
# [26] = molecular target: Fuc(a1-3)[Gal(b1-4)]GlcNAc(b1-2)Man
# Method in brief: as §1
# [27] = molecular target: Fuc(a1-3)[Gal(b1-4)]GlcNAc(b1-2)Man(a1-3)[Fuc(a1-3)[Gal(b1-4)]GlcNAc(b1-2)Man(a1-6)]Man(b1-4)GlcNAc(b1-4)GlcNAc
# Method in brief: as §1
# [28] = molecular target: Fuc(a1-3)[Gal(b1-4)]GlcNAc(b1-2)Man(a1-3)[Fuc(a1-3)[Gal(b1-4)]GlcNAc(b1-2)Man(a1-6)]Man(b1-4)GlcNAc(b1-4)[Fuc(a1-6)]GlcNAc
# Method in brief: as §1
# [29] = molecular target: Fuc(a1-3)[Gal(b1-4)]GlcNAc(b1-3)Gal(b1-3)[Fuc(a1-4)]GlcNAc
# Method in brief: as §1
# [30] = molecular target: Fuc(a1-3)[Gal(b1-4)]GlcNAc(b1-3)Gal(b1-4)[Fuc(a1-3)]GlcNAc
# Method in brief: as §1
# [31] = molecular target: Fuc(a1-3)[Gal(b1-4)]GlcNAc(b1-3)Gal(b1-4)[Fuc(a1-3)]GlcNAc(b1-3)Gal(b1-4)[Fuc(a1-3)]GlcNAc
# Method in brief: as §1
# [32] = molecular target: Fuc(a1-3)[Gal(b1-4)]GlcNAc(b1-3)GalNAc
# Method in brief: as §1
# [33] = molecular target: Fuc(a1-3)[Gal(b1-4)]GlcNAc(b1-6)GalNAc
# Method in brief: as §1
# [34] = molecular target: Fuc(a1-3)[Gal(b1-4)]GlcNAc(b1-6)[Gal(b1-3)GlcNAc(b1-3)]Gal(b1-4)Glc
# Method in brief: as §1
# [35] = molecular target: Fuc(a1-3)[Gal(b1-4)]GlcNAc6S
# Method in brief: as §1
# [36] = molecular target: Fuc(a1-3)[Gal3S(b1-4)]Glc
# Method in brief: as §1
# [37] = molecular target: Fuc(a1-3)[Gal3S(b1-4)]GlcNAc
# Method in brief: as §1
binder,measurement,setting,value
B1,glycan array binding signal (z-score),[1],-0.101
same,glycan array binding signal (z-score),[2],-0.307
same,glycan array binding signal (z-score),[3],-0.383
same,glycan array binding signal (z-score),[4],-0.359
same,glycan array binding signal (z-score),[5],-0.316
same,glycan array binding signal (z-score),[6],-0.086
same,glycan array binding signal (z-score),[7],-0.232
same,glycan array binding signal (z-score),[8],-0.26
same,glycan array binding signal (z-score),[9],-0.382
same,glycan array binding signal (z-score),[10],-0.308
same,glycan array binding signal (z-score),[11],-0.36
same,glycan array binding signal (z-score),[12],-0.332
same,glycan array binding signal (z-score),[13],7.56
same,glycan array binding signal (z-score),[14],-0.315
same,glycan array binding signal (z-score),[15],-0.267
same,glycan array binding signal (z-score),[16],-0.04
same,glycan array binding signal (z-score),[17],-0.244
same,glycan array binding signal (z-score),[18],-0.308
same,glycan array binding signal (z-score),[19],-0.216
same,glycan array binding signal (z-score),[20],-0.369
same,glycan array binding signal (z-score),[21],0.034
same,glycan array binding signal (z-score),[22],4.75
same,glycan array binding signal (z-score),[23],2.63
same,glycan array binding signal (z-score),Fuc(a1-3)GlcNAc,-0.348
same,glycan array binding signal (z-score),[24],-0.217
same,glycan array binding signal (z-score),[25],-0.23
same,glycan array binding signal (z-score),[26],-0.331
same,glycan array binding signal (z-score),[27],-0.223
same,glycan array binding signal (z-score),[28],0.066
same,glycan array binding signal (z-score),[29],-0.255
same,glycan array binding signal (z-score),[30],-0.358
same,glycan array binding signal (z-score),[31],-0.235
same,glycan array binding signal (z-score),[32],-0.215
same,glycan array binding signal (z-score),[33],0.197
same,glycan array binding signal (z-score),[34],-0.35
same,glycan array binding signal (z-score),[35],0.766
same,glycan array binding signal (z-score),[36],-0.34
same,glycan array binding signal (z-score),[37],-0.318
